Data on 9 substances can be found in article PMC11707394.

Chains of the proteins cited; added tags and fusions are not shown. Lines headed by an entry give the natural chain unless they say otherwise; changes in a name come on top. A line that says so, or that is headed by a name, gives the form on record, which may keep a tag or linker.
UniProt Q9Z148: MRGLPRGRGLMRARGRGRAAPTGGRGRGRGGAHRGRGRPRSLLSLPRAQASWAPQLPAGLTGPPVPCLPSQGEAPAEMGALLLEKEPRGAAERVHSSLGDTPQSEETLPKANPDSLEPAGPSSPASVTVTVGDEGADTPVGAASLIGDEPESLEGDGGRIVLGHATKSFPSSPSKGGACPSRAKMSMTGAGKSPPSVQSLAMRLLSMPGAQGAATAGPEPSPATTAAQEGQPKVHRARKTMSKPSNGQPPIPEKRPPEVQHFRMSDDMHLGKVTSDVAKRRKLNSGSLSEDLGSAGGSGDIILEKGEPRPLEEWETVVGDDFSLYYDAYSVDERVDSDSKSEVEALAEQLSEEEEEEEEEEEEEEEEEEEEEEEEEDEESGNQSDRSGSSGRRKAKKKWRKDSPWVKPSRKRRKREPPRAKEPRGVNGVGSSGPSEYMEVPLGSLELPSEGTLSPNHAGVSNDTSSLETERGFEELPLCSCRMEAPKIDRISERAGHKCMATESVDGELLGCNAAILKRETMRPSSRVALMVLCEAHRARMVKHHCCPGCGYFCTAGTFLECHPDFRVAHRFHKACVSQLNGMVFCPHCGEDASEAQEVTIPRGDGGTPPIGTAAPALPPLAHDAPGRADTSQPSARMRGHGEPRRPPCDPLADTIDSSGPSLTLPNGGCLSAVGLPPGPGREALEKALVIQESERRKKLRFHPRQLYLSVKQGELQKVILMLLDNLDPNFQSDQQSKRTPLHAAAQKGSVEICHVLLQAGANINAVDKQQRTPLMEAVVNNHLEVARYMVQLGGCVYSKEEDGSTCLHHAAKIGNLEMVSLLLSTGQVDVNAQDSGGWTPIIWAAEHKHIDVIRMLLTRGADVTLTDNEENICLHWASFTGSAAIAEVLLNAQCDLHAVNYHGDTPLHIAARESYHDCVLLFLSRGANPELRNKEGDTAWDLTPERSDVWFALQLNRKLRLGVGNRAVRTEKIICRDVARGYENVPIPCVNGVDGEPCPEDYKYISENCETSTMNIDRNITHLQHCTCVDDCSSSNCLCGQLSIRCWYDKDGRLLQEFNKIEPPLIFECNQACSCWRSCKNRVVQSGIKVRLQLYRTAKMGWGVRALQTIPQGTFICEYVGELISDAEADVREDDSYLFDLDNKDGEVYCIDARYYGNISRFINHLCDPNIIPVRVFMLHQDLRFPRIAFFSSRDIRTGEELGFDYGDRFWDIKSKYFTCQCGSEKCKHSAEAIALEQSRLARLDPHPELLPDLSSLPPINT
UniProt Q9H9B1: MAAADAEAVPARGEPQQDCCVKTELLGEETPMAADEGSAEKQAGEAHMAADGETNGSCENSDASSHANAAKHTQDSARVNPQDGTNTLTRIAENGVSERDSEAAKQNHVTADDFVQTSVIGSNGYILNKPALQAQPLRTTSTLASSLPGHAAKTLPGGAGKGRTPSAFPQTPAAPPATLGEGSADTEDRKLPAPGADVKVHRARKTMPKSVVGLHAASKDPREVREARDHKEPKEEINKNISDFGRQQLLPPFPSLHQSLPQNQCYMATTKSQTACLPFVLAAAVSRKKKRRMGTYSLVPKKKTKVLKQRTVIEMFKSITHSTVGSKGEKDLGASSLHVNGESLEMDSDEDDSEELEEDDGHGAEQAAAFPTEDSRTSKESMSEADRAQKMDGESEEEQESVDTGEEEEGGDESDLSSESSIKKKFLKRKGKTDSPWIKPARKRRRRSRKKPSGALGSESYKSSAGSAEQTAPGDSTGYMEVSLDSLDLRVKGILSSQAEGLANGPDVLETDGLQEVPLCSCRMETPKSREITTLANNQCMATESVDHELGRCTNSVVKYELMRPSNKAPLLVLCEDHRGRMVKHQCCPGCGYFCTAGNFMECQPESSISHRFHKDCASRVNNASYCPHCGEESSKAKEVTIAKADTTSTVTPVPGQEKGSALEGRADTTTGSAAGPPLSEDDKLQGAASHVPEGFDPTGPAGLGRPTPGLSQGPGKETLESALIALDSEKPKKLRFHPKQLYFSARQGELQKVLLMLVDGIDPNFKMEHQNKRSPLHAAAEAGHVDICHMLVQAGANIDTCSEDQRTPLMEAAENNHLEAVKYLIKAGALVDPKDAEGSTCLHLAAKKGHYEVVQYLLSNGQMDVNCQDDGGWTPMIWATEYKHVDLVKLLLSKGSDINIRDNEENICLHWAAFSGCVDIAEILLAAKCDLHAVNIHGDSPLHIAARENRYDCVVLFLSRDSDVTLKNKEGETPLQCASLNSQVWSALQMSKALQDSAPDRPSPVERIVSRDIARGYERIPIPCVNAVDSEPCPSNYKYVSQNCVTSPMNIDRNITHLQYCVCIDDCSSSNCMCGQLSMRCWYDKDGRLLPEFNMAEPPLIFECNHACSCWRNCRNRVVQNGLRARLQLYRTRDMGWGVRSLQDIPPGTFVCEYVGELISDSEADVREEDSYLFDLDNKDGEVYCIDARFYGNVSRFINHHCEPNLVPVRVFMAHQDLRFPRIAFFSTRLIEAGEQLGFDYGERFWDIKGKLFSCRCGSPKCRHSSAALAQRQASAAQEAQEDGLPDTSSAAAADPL
UniProt Q9BZ95: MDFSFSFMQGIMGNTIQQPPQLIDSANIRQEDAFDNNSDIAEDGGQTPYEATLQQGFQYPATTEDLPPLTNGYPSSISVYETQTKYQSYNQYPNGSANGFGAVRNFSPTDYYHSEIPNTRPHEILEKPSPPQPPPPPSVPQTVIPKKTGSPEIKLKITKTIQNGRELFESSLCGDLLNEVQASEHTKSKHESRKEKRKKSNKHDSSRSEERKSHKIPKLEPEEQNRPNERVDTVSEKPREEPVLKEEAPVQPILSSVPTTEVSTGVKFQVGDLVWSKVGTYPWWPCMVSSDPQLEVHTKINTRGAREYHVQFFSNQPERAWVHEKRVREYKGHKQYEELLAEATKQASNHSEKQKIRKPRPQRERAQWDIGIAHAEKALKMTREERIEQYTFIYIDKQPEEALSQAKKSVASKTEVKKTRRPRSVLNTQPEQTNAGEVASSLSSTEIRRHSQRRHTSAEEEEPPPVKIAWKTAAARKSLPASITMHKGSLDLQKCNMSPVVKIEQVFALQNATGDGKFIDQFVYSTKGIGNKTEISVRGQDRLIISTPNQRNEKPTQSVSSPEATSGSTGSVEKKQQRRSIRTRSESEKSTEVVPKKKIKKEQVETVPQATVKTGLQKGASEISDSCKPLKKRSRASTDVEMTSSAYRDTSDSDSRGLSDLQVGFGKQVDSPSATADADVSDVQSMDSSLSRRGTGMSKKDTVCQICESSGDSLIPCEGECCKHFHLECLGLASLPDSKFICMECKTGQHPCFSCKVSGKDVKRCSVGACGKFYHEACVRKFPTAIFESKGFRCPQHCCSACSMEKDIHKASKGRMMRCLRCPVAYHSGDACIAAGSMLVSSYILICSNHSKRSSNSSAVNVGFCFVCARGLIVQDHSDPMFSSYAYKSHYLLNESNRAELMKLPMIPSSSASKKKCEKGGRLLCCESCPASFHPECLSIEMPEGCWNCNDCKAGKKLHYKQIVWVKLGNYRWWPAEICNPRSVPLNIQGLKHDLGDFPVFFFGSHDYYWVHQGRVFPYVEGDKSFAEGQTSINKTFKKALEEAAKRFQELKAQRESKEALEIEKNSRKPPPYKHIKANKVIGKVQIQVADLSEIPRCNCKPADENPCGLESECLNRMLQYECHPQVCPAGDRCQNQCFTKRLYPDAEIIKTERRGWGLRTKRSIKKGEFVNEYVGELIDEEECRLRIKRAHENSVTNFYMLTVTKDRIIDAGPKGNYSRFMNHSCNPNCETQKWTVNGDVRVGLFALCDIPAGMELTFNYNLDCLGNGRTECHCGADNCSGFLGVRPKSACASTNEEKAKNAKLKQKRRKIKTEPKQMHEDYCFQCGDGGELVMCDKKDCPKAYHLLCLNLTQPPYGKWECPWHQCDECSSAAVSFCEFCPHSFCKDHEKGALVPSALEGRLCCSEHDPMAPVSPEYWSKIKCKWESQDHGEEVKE
EGFP-NSD3L delta PWWP (PWWP-deleted NSD3-long isoform fused with EGFP) (Q9BZ95, form named): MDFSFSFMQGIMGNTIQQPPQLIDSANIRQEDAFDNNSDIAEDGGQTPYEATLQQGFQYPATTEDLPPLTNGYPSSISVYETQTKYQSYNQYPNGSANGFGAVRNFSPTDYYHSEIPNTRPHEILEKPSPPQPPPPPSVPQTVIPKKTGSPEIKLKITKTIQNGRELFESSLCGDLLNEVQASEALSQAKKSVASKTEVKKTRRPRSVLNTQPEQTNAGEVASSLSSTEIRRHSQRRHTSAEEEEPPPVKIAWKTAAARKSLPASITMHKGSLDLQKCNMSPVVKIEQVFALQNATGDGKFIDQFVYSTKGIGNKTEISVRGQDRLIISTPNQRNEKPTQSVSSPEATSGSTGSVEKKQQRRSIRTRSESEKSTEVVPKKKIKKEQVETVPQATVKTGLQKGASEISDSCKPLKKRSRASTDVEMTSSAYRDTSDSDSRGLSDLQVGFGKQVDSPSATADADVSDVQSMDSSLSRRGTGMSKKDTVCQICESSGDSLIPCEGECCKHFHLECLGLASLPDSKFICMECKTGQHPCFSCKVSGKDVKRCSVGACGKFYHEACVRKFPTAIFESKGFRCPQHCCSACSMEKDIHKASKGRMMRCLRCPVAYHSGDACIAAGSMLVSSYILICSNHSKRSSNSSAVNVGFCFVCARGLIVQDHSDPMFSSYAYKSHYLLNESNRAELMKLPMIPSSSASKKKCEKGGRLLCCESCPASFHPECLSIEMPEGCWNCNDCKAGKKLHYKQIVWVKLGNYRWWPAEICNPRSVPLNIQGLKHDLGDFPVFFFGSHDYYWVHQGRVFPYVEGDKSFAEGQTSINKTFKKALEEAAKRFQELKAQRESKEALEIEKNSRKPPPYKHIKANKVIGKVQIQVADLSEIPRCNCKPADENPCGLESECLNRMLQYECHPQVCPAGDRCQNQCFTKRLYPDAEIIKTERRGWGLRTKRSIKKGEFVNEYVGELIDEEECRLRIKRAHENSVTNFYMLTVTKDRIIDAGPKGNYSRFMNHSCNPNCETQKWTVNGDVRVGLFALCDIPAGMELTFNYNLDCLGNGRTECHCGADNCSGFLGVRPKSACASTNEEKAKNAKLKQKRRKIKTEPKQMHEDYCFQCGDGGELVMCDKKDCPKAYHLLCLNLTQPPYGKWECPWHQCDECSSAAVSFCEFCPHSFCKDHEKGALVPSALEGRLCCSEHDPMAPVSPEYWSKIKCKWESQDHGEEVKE
NSD3-short isoform (NSD3S), endogenous in V-H9-hESCs (Q9BZ95-3, form named): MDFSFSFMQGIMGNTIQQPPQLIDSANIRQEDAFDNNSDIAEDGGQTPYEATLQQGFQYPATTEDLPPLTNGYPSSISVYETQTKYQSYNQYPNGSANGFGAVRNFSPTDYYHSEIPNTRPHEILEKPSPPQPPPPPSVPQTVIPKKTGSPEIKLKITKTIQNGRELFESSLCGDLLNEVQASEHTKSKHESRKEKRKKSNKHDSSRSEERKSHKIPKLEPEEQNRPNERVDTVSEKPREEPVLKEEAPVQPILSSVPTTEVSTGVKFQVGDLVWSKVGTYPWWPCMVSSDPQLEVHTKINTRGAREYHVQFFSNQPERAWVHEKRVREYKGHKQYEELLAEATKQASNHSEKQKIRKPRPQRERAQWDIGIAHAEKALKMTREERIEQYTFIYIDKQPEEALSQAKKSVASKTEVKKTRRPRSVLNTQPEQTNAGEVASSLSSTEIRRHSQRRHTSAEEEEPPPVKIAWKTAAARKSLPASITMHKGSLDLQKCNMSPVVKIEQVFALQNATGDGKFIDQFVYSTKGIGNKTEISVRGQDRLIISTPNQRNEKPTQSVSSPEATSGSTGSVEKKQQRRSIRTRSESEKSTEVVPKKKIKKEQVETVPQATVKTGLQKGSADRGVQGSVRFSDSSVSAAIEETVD

Results are given in words; binding and its absence hold for the method and conditions named. In cells and extracts the contact can be indirect. Some results given as binding are weak or reduced against the parent protein; the word gives no strength.

One test has as its target Flag-EHMT2 (mouse) (UniProt Q9Z148). In words: co-IP; 293 cells co-transfected with tagged plasmids; IP by anti-V5, anti-Flag or anti-GFP antibody on Protein A or G Dynabeads, lysate overnight at 4°C; immunoblot for the partner's tag or NSD3. (In general: A western blot detects proteins with antibodies after separation by electrophoresis.)
The target in another test is V5-EHMT1 (UniProt Q9H9B1). The description is as above.
The target in test [1] is EHMT1, endogenous in 293 cells (human (endogenous in HEK293)) (UniProt Q9H9B1). The experiment in a line: co-IP; endogenous proteins of 293 cells; IP with anti-EHMT1, anti-EHMT2 or anti-NSD3 antibody, immunoblot for the partner.
For test [2], the target named is EHMT1 (euchromatic histone methyltransferase 1), endogenous in V-H9-hESCs (human (endogenous in V-H9-hESC)) (UniProt Q9H9B1). In words: co-IP; endogenous proteins; anti-EHMT1 or anti-EHMT2 antibody on Protein A or G Dynabeads, V-H9-hESC lysate overnight at 4°C; immunoblot with anti-NSD3.
The target of test [3] is NSD3, endogenous in 293 cells (human (endogenous in HEK293)) (UniProt Q9BZ95). In words: co-IP; endogenous proteins of 293 cells; IP with anti-EHMT1, anti-EHMT2 or anti-NSD3 antibody, immunoblot for the partner.
In test [4] the target is EGFP-NSD3L (NSD3-long isoform fused with EGFP) (human) (UniProt Q9BZ95). In words: co-IP; 293 cells co-transfected with tagged plasmids; IP by anti-V5, anti-Flag or anti-GFP antibody on Protein A or G Dynabeads, lysate overnight at 4°C; immunoblot for the partner's tag or NSD3.
The target in test [5] is EGFP-NSD3L delta PWWP (PWWP-deleted NSD3-long isoform fused with EGFP) (human) (UniProt Q9BZ95). The test is described as above.
The target in test [6] is EHMT2-GFP (mouse EHMT2 full length in EGFPC1) (mouse) (UniProt Q9Z148). Described as above.

Consider “NSD3 N-term (1–173) domain (from UniProt Q9BZ95 1-173) (domain or fragment)”, for which the binding result with Flag-EHMT2 (mouse) is recorded as “no binding”.
For “EGFP-NSD3L (NSD3-long isoform fused with EGFP) (from UniProt Q9BZ95 1-1437)”, the binding result in the test with Flag-EHMT2 (mouse) and with V5-EHMT1 was “binds” throughout.
With “NSD3, endogenous in 293 cells (from UniProt Q9BZ95 1-1437)”, in test [1], the binding entry is given as “binds”.
In the case of “NSD3-long isoform (NSD3L), endogenous in V-H9-hESCs (from UniProt Q9BZ95 1-1437)”, the binding entry in test [2] is recorded as “binds”.
In the case of “EHMT1, endogenous in 293 cells (from UniProt Q9H9B1 1-1298)”, in test [3], the binding result is on record as “binds”.
On to Flag-EHMT2 (from UniProt Q9Z148 1-1263), for which the binding entry is “binds” in test [4] and “binds weakly” in test [5].
For “Flag-NSD3S (NSD3-short isoform, Flag tagged) (from UniProt Q9BZ95-3 1-645)”, the binding entry (in test [6]; with V5-EHMT1) was “binds” throughout.
As for “NSD3-short isoform (NSD3S), endogenous in V-H9-hESCs (from UniProt Q9BZ95-3 1-645)”, the binding entry in test [2] was “binds”.
As for “N-term NSD3 (1–384) (from UniProt Q9BZ95 1-384) (domain or fragment)”, in the test with Flag-EHMT2 (mouse), the binding entry was “binds”.
